The whole screen tested about 290,000 compounds, of which about 2,100 (0.72%) were called active. Inconclusive means that the source gave no clear call. Such entries were picked first, then a sample of the others. Calls follow the shape of the dose curve; as a rule, active = well fitted inhibition curve with a large enough effect; inconclusive = small, poorly fitted or top-dose-only effect, or effect the other way; inactive = flat fitted curve, though single readings scatter. A potency beside an inconclusive call is a rough fit, not a confirmed value.
Each compound was assayed against Fructose-bisphosphate aldolase (Giardia intestinalis (strain ATCC 50803 / WB clone C6)) (UniProt A8B2U2) (assay: qHTS Assay for Inhibitors of Fructose-1,6-bisphosphate Aldolase from Giardia Lamblia). Conditions: purified Giardia FBPA; activity, negative = inhibition: at 59.6 µM (top of the series) unless noted.
Sequence of UniProt A8B2U2 (A8B2U2 whole entry, looked up): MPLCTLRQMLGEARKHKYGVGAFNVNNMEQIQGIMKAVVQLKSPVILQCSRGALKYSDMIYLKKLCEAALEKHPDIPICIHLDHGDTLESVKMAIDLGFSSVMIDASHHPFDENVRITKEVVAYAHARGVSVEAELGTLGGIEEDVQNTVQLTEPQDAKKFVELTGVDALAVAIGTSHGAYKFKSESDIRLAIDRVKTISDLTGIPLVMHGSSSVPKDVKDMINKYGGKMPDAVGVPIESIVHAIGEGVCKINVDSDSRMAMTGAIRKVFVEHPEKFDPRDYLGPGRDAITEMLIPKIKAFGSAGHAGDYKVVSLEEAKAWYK
Summary of the method: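 Giardia FBPA (40 nM reagent) was preincubated 10 min at RT with compound (up to 57.5 uM final), then substrate plus GAPDH/TPI/NAD/arsenate coupling system with diaphorase/resazurin was added; resorufin fluorescence (525/598 nm) was read after 20 min.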
In the case of `O=C(Oc1ccc2c(c1)OCO2)c1cc2c(s1)CCC2`, the Potency is reported as inconclusive: 35.4 µM [inhibitor, single point]. With `COC(=O)C1=C(C)N(CCC2=CCCCC2)C(=O)C1` the Potency was inconclusive: 22.3 µM [inhibitor, single point]. For `Cn1c(=O)c(C(=O)CN2CCCc3ccccc32)c(N)n(Cc2ccccc2)c1=O`, the “activity, negative = inhibition” value was inactive: -14.7%. `N#Cc1c(NC(=O)CSc2ncnc3sccc23)oc(-c2ccco2)c1-c1ccco1` was tested, and the Potency was inconclusive: 7.92 µM [inhibitor, partial curve]. `CC(C)c1ccccc1NC(=O)COC(=O)c1c2c(nc3ccccc13)CCN(Cc1ccccc1)C2` was tested, and the “activity, negative = inhibition” value was inactive: -6.84%. `CCN(CC)S(=O)(=O)c1ccc(C(=O)Oc2ccc3c(c2)OCO3)cc1` was tested, and the Potency was inconclusive: 5 µM [activator, single point]. For `COc1ccc(/C=N/Nc2nnc(C)n2N)cc1OC(C)=O`, the Potency was inconclusive: 17.8 µM [inhibitor, partial curve]. In the case of `S=C(NNC(=S)Nc1ccccc1)Nc1ccccc1`, the “activity, negative = inhibition” value is reported as inactive: 29.3%. `N#C/C(=C\c1cccnc1)c1ccccc1[N+](=O)[O-]` was tested, and the “activity, negative = inhibition” value was inactive: 0.455%. For `COc1cccc(C(=O)NC(=S)N2c3ccccc3CC2C)c1OC` (stereo unspecified), the Potency was inconclusive: 14.1 µM [inhibitor, partial curve]. With `Nc1cc(N)c(OCC(F)(F)F)cc1OCC(F)(F)F` the Potency was inconclusive: 0.282 µM [inhibitor, full curve]. In the case of `CC(C)c1ccc2c(c1)CCC1C(C)(C(N)=O)CCCC21C` (stereo unspecified), the “activity, negative = inhibition” value is reported as inactive: -0.955%. With `CCn1c(-c2ccc(OC)c(OC)c2)n[nH]c1=S` the Potency was inconclusive: 15.8 µM [inhibitor, single point]. With `O=C1NC(=O)N(Cc2ccccc2)C(=O)/C1=C\N1CCCc2ccccc21` the Potency was inconclusive: 1.99 µM [inhibitor, full curve]. With `O=C(CCN1C(=O)/C(=C\c2ccco2)SC1=S)Nc1ccc(C(=O)O)c(O)c1` the Potency was inconclusive: 28.2 µM [inhibitor, single point]. `O=Cc1c(SCCO)nc2ccccn2c1=O` was tested, and the “activity, negative = inhibition” value was inactive: -5.33%. With `COCCNc1nc(-c2cc(C)n(CCc3ccc(OC)cc3)c2C)cs1` the Potency was inconclusive: 14.1 µM [inhibitor, partial curve]. `O=C(/C=C/c1ccccc1)Nc1nc(-c2ccncc2)cs1` was tested, and the “activity, negative = inhibition” value was inactive: -1.82%. For `CCOC(=O)Cc1csc(NC(=S)NC(=O)c2ccccc2C)n1`, the Potency was inconclusive: 15.8 µM [inhibitor, partial curve]. In the case of `C=CCNC(=S)N/N=C(\C)c1ccc(-n2ccnc2)cc1`, the Potency is reported as inconclusive: 6.29 µM [inhibitor, partial curve]. With `C/C(=N\NC(=O)c1cccc(Br)c1)c1ccccn1` the Potency was inconclusive: 31.6 µM [inhibitor, single point]. `COc1cccc(C2C=C(c3cccs3)Nc3ncnn32)c1OC` (stereo unspecified) was tested, and the Potency was inconclusive: 22.3 µM [inhibitor, single point]. With `COc1cc(/C=N/NC(=O)Cc2cccs2)c([N+](=O)[O-])cc1OC` the Potency was inconclusive: 2.23 µM [inhibitor, full curve]. With `C=CCn1c(-c2ccc(OC)c(OC)c2)n[nH]c1=S` the Potency was inconclusive: 5.61 µM [inhibitor, partial curve]. `O=C1NC(=O)N(c2ccccc2)C(=O)/C1=C\c1ccc([N+](=O)[O-])o1` was tested, and the Potency was active: 19.9 µM. In the case of `CC(C)=CC(=O)NCCc1ccccc1`, the “activity, negative = inhibition” value is reported as inactive: 9.51%. With `O=C(CSc1nc2cc([N+](=O)[O-])ccc2n1-c1ccccc1)NCc1ccc2c(c1)OCO2` the Potency was active: 7.92 µM. For `CCn1nnnc1NCc1ccc(N2CCCC2)cc1`, the Potency was inconclusive: 14.1 µM [inhibitor, partial curve]. `CN(Cc1ccccc1)C(=S)Nc1cccnc1` was tested, and the “activity, negative = inhibition” value was inactive: 0.666%. `O=C1NC2=C(CCc3ccccc32)C(c2ccc(Br)cc2)N1` (stereo unspecified) was tested, and the Potency was inconclusive: 15.8 µM [inhibitor, partial curve]. `Cc1ccc([C@@H]2C3COCC=C3C(C#N)=C(N)C2(C#N)C#N)o1` (stereo partly specified) was tested, and the Potency was inconclusive: 17.7 µM [inhibitor, partial curve]. In the case of `O=C(N/N=C/C=C\c1ccco1)c1cccs1`, the Potency is reported as inconclusive: 15.8 µM [inhibitor, partial curve]. With `Cc1cc(C)c(C)c(OCCN2CC(C)OC(C)C2)c1` (stereo unspecified) the Potency was inconclusive: 8.91 µM [inhibitor, full curve]. `CN1Cc2c(c(C#N)c(N)n(C)c2=S)CC1(C)C` was tested, and the Potency was inconclusive: 7.06 µM [inhibitor, partial curve]. In the case of `CN1CCN(CCCNc2c(C=O)c(=O)[nH]c3ccccc23)CC1`, the Potency is reported as inconclusive: 39.8 µM [inhibitor, single point]. `N#Cc1nc(-c2ccc(F)cc2)oc1NCc1ccco1` was tested, and the “activity, negative = inhibition” value was inactive: -5.46%. `Cc1nc2ccc(NC(=O)CSc3nnc(C)s3)cc2[nH]1` was tested, and the Potency was inconclusive: 39.8 µM [inhibitor, single point]. For `O=C(Nc1ccc2nsnc2c1)N1CCCCC1`, the Potency was inconclusive: 14.1 µM [inhibitor, partial curve]. In the case of `Cc1[nH]c2ccccc2c1CN1CCc2ccccc2C1`, the Potency is reported as inconclusive: 15.8 µM [inhibitor, partial curve]. In the case of `NS(=O)(=O)c1ccc(NC(=S)NC(=O)c2cccc(Br)c2)cc1`, the Potency is reported as inconclusive: 15.8 µM [inhibitor, single point]. In the case of `COc1ccc(Nc2cc(C)nc3ccc(OC)cc23)cc1`, the Potency is reported as inconclusive: 15.8 µM [inhibitor, partial curve, poor fit]. With `Cc1ccc(-n2c3c(cc(C(=O)Nc4cccc(C)n4)c2=O)C(=O)CCC3)cc1` the Potency was inconclusive: 35.4 µM [inhibitor, single point]. `O=C(O)c1cc(=O)c2cccc(O)c2[nH]1` was tested, and the Potency was inconclusive: 9.98 µM [inhibitor, partial curve]. With `COc1ccccc1C(=O)Nc1sc2c(c1C(N)=O)CCCC2` the “activity, negative = inhibition” value was inactive: -1.3%. With `Cc1cccc(N2C(=O)c3cccc4c(N(C)CCO)ccc(c34)C2=O)c1` the Potency was inconclusive: 15.8 µM [inhibitor, partial curve]. `COc1ccc(/C(C)=N/NC(=S)Nc2cc(C)ccc2C)cc1` was tested, and the Potency was inconclusive: 44.6 µM [inhibitor, single point].
% is scaled to controls: 0 for no effect and ±100 for the full control effect; potency is read from the fitted curve at half-maximal effect; tags tell the direction and shape of the fitted curve.
Also: nearly all actives have a fitted effect of over 55% in size.
